# Experimental data: the supplement of paper PMC4166925
# ± gives the standard deviation of the averaged measurements. The full ranking holds about 33,000 sequences; the median of “E-score (dimensionless, -0.5 to 0.5)” is about -0.049, and the highest 2% start at about 0.37. The list shows a part of the results.
# Tested on: T1, PmTbr T-box DNA-binding domain (GST fusion)
# T1 sequence: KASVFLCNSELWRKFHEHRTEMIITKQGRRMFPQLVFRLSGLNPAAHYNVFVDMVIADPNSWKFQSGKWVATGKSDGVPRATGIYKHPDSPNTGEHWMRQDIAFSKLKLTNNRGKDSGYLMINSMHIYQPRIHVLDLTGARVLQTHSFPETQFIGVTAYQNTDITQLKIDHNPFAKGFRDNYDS
# Assay: PBM E-score of 8-mer (E-score (dimensionless, -0.5 to 0.5)); Tbr is Tbrain of the sea star Patiria miniata (Pm) or the sea urchin Strongylocentrotus purpuratus (Sp); higher = stronger binding preference; most listed sequences are background and not binding sites
# Settings: the construct has about 5 more residues each side
# Procedure, shortened: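 GST-fused Tbr T-box DNA-binding domains (the whole T-box plus about five flanking residues) were expressed in BL21 E. coli at 20 °C and purified by glutathione affinity chromatography. Universal Agilent oligonucleotide arrays were made double-stranded by primer extension, incubated with 200 nM protein in PBS (pH 7.5), then scanned and quantified. Every ungapped 8-mer was scored from probe intensities. The Universal PBM Analysis Suite gave each word an enrichment E-score, averaged over duplicate arrays.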
row,Sequence,PBM E-score of 8-mer
1,ACAGCCGC,0.0319 ± 0.077
2,TCGACACA,0.319 ± 0.016
3,ATAGAGTA,-0.106 ± 0.0083
4,GGTGCGAA,0.48957 ± 0.00016
5,GGTTCAAC,-0.15 ± 0.039
6,AAGATAGT,-0.0386 ± 0.041
7,ACAAGCCG,-0.0272 ± 0.0016
8,GAACACGA,0.0885 ± 0.011
9,GTCGGGAA,-0.0748 ± 0.046
10,CCCCCGTA,-0.0786 ± 0.11
11,CTACTGAA,-0.13 ± 0.018
12,TACTTCAA,-0.237 ± 0.022
13,CGGGCAAG,-0.0794 ± 0.036
14,CCTACCTC,-0.0492 ± 0.071
15,ATGACCCA,-0.0989 ± 0.055
16,CCCATAGC,-0.0976 ± 0.053
17,CTATATTA,0.0547 ± 0.023
18,ATTGTAGG,-0.0174 ± 0.026
19,CCCTGGAG,-0.106 ± 0.024
20,AGGGGACA,-0.0658 ± 0.047
21,CCAAATTC,0.137 ± 0.047
22,ATACGTAC,-0.0364 ± 0.057
23,ATTACAGA,-0.15 ± 0.012
24,AAGAAGTG,0.216 ± 0.013
25,CGTTCATC,-0.188 ± 0.0052

row,Sequence,PBM E-score of 8-mer
1,CATGTCTC,-0.133 ± 0.016
2,CAAGGTAC,-0.0147 ± 0.012
3,CGTCTGAG,-0.166 ± 0.065
4,CAACGTAA,-0.163 ± 0.13
5,ATAATTGC,0.014 ± 0.077
6,CGATAAGA,0.0841 ± 0.032
7,AGAGTTGG,-0.00498 ± 0.0058
8,GGTGGCAA,0.3882 ± 0.0017
9,CCCTGAGC,-0.0772 ± 0.042
10,ACTTCACC,0.0665 ± 0.03
11,AGCTTATA,-0.126 ± 0.055
12,CATTGGAA,-0.0527 ± 0.049
13,ACCATCAG,0.202 ± 0.024
14,CAAAGTAG,-0.0267 ± 0.012
15,AATCTCCA,-0.108 ± 0.07
16,CGGGGGAC,-0.175 ± 0.086
17,ACTATAGG,-0.126 ± 0.044
18,GACTTCTA,-0.0602 ± 0.012
19,AGGCAGAC,-0.173 ± 0.0082
20,ACTCGACT,-0.0594 ± 0.015
21,CCTAAGTC,-0.0839 ± 0.0091
22,AGTGAAAT,0.241 ± 0.05
23,CCTGAACA,0.0846 ± 0.038
24,GAGCCCAC,-0.0709 ± 0.04
25,ACGGTGGA,-0.21 ± 0.0022

row,Sequence,PBM E-score of 8-mer
1,CTGGCCTC,-0.14 ± 0.041
2,CCTCTAAG,0.0268 ± 0.032
3,GGGCGTAA,0.118 ± 0.012
4,AACTTCAG,-0.177 ± 0.012
5,AGGAGTTC,-0.136 ± 0.1
6,GTGATTGA,0.125 ± 0.042
7,CGCAAACC,-0.0122 ± 0.0044
8,GGTTGAAA,-0.0312 ± 0.071
9,AAGTGTAC,0.0291 ± 0.019
10,AAGGAAGA,-0.262 ± 0.1
11,ACCTGCTG,0.1509 ± 0.0011
12,AAACCCGA,-0.02 ± 0.015
13,AGGCATGC,-0.327 ± 0.025
14,CCCATGTA,-0.0443 ± 0.12
15,CGCGAGAC,0.329 ± 0.02
16,GGCCTCTA,-0.206 ± 0.058
17,GAGATAGA,-0.103 ± 0.0062
18,TCCATGGA,-0.249 ± 0.024
19,TATGCCCA,-0.223 ± 0.067
20,AAATGCAC,-0.0607 ± 0.12
21,ATCAAGTG,0.117 ± 0.021
22,TAGTGTAA,0.185 ± 0.072
23,CCATATTA,-0.18 ± 0.026
24,ACCCTGAA,0.1933 ± 0.0017
25,AGCAACGA,-0.0846 ± 0.025

row,Sequence,PBM E-score of 8-mer
1,ATTCATGC,-0.149 ± 0.024
2,GTTCGCTA,0.0963 ± 0.024
3,GGGGCACA,-0.137 ± 0.089
4,GGCAAGAA,-0.135 ± 0.068
5,GAGCAGGA,-0.0811 ± 0.049
6,GATACGCA,-0.0323 ± 0.072
7,GTTCTTTA,-0.22 ± 0.059
8,TAAGAACA,0.045 ± 0.043
9,ACACAGTG,0.229 ± 0.005
10,GATCAACC,-0.118 ± 0.014
11,ATTGAGGA,-0.293 ± 0.072
12,AAGGGTGG,0.1889 ± 0.001
13,AGCCACCA,-0.0526 ± 0.037
14,ATATATAG,-0.0935 ± 0.0052
15,TCTAATAA,-0.106 ± 0.019
16,ACGTATGC,-0.0237 ± 0.041
17,CTGGGATA,-0.184 ± 0.04
18,AATGATGA,-0.167 ± 0.027
19,TCGTTTAA,-0.116 ± 0.039
20,AGAATTTA,-0.153 ± 0.058
21,TCGCGACA,0.331 ± 0.0039
22,AAGCATGA,0.00125 ± 0.081
23,CCAGGGGA,-0.207 ± 0.064
24,CTTACCGA,-0.202 ± 0.02
25,GGCGATAC,0.115 ± 0.047

row,Sequence,PBM E-score of 8-mer
1,TCGCAAAA,0.152 ± 0.048
2,TCGCTCAA,-0.0477 ± 0.049
3,ATATCATC,-0.0357 ± 0.061
4,CTAAACCA,0.00654 ± 0.038
5,AATGTGAA,0.215 ± 0.0047
6,ACGGATTA,-0.183 ± 0.026
7,ACTGCGCT,0.0435 ± 0.029
8,TCGTACCA,-0.0293 ± 0.089
9,CCAGTCTC,-0.116 ± 0.032
10,CCACCACG,-0.00839 ± 0.13
11,GCCAAGCC,-0.3 ± 0.033
12,AACCTCAC,0.219 ± 0.015
13,ACTCTGGA,-0.282 ± 0.032
14,CCTAGAAG,-0.116 ± 0.024
15,CTGAATTC,-0.283 ± 0.015
16,ATGTTCCA,-0.118 ± 0.015
17,AGGCTTCA,-0.0816 ± 0.048
18,ACTGGAGG,0.0506 ± 0.064
19,AGATAGTG,0.223 ± 0.056
20,GCTACCAA,0.108 ± 0.054
21,GCCGCGCC,0.061 ± 0.018
22,AAAGCCTG,-0.0728 ± 0.022
23,GCGTTGCA,0.242 ± 0.035
24,GCCTCGAA,-0.213 ± 0.0074
25,TAGGCCTA,-0.0849 ± 0.041

row,Sequence,PBM E-score of 8-mer
1,ATAGGGAC,-0.00492 ± 0.035
2,AGACTGTA,-0.104 ± 0.069
3,ATCACGTC,0.153 ± 0.0094
4,AATGAAAA,-0.0587 ± 0.014
5,AATGGTGG,-0.00471 ± 0.038
6,ACTGTCGG,0.176 ± 0.014
7,TCCTGAAA,-0.213 ± 0.065
8,AGGTTATC,-0.0427 ± 0.013
9,CCGTCCAC,-0.204 ± 0.00076
10,CTACGATA,0.168 ± 0.027
11,GTGGCGCA,0.118 ± 0.017
12,ATAAAAGA,-0.188 ± 0.0033
13,GCTCTAAA,-0.0297 ± 0.022
14,CCTATTCC,-0.125 ± 0.1
15,GCGTCGGA,0.011 ± 0.028
16,AGATCGGG,-0.126 ± 0.023
17,AGGTTCGA,-0.154 ± 0.022
18,AATGATTG,0.0511 ± 0.14
19,ACAAAGCC,-0.0874 ± 0.056
20,TAAACACA,0.145 ± 0.0066
21,AGGATCCG,-0.392 ± 0.04
22,ATGTCAAC,0.171 ± 0.006
23,AGTCGGAA,-0.193 ± 0.062
24,TCCAGCAA,-0.268 ± 0.033
25,GGGTGACA,0.4543 ± 0.0023

row,Sequence,PBM E-score of 8-mer
1,CGGTTTAG,-0.0233 ± 0.07
2,AGCAGAAT,-0.00022 ± 0.075
3,GACGGACC,-0.128 ± 0.011
4,AGGGAACT,-0.0419 ± 0.0039
5,GCTATGGA,-0.263 ± 0.018
6,ATGAATAA,-0.223 ± 0.026
7,CGCGCATC,0.0691 ± 0.012
8,CTCCTTCC,-0.0763 ± 0.059
9,ACGCAGAT,-0.171 ± 0.012
10,ATCTGGGA,-0.183 ± 0.012
11,CAAGGGCG,0.0415 ± 0.012
12,CAAGATTC,-0.188 ± 0.023
13,ACGCTTGG,-0.00775 ± 0.031
14,CTGCTTGA,-0.167 ± 0.086
15,GAATCAGA,-0.119 ± 0.013
16,AGATAGAC,-0.333 ± 0.0091
17,ATATATGC,-0.23 ± 0.057
18,AGCTAACT,-0.2624 ± 0.0013
19,ACAGTATC,0.11 ± 0.029
20,AGTCAAGC,-0.29 ± 0.022
21,ACGCGCCA,0.245 ± 0.0088
22,CAAAGGAC,-0.172 ± 0.034
